# Laboratory results published in PMC4336329 (PLoS ONE, 2015).
# The campaign covered roughly 310,000 compounds. About 2,200 (0.71%) showed an effect of 50% or more. The effect is printed as a negative number. Some of the results follow.
# Biological target: human ether-à-go-go-related gene (hERG) potassium channel (human, UniProt Q12809)
# Assay: primary screen, population patch clamp on CHO cells stably expressing hERG
# Sequence of human ether-à-go-go-related gene (hERG) potassium channel (Q12809 whole entry, looked up): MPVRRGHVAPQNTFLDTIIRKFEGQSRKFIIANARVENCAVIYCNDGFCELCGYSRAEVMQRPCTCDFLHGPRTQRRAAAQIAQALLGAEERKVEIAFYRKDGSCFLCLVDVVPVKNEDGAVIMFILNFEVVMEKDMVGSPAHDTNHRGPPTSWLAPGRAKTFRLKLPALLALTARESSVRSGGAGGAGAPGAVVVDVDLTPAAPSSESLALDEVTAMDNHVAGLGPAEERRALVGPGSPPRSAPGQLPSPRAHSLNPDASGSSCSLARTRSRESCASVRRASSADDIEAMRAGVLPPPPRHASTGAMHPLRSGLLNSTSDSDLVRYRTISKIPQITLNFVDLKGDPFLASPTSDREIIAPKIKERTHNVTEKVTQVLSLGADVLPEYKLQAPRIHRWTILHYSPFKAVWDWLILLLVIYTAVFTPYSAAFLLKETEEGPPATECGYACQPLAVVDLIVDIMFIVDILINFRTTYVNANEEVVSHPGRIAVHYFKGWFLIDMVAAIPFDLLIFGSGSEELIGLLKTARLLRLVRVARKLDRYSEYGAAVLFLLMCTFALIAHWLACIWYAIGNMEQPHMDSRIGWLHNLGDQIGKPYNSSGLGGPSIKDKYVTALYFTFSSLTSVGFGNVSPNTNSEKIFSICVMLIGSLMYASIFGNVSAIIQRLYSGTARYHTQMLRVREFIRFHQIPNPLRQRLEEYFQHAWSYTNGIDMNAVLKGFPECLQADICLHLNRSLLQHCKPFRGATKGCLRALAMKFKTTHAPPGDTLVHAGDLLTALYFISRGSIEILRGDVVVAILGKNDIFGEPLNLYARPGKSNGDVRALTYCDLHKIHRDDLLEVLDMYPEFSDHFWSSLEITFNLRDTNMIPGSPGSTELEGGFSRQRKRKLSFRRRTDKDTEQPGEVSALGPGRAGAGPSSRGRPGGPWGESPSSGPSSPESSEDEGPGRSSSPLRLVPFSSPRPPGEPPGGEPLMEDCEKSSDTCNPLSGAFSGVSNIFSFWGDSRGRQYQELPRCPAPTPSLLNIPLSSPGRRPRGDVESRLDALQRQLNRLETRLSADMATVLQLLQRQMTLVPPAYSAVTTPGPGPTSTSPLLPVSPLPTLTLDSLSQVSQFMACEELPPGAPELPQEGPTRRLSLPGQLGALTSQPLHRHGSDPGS
row,Compound,"hERG current change (%, negative = inhibition) at 1uM"
1,O=C1CSc2ccc(S(=O)(=O)NCc3ccccc3)cc2N1,-3.94%
2,COc1ccc2c(c1OC)C(=O)OC2CC(=O)c1ccc2c(c1)OCO2 (centres unmarked),10.2%
3,Cc1cc(Br)ccc1SCC(=O)OCC(=O)c1c(N)n(C)c(=O)n(C)c1=O,0.893%
4,COc1ccc(N=C2SC(C(=O)Nc3ccc(F)cc3)CC(=O)N2C)cc1 (centres unmarked),7.4%
5,CCCOC1CCCN(C(=O)CCCn2nnnc2CN2CCOCC2)C1 (centres unmarked),11.9%
6,CSCC(=O)Nc1cc(C)on1,10.6%
7,O=C1C2C3C=CC(CC3)C2C(=O)N1/N=C/c1ccccc1O (centres unmarked),7.3%
8,CC(NC(=O)Nc1ncccn1)(C(F)(F)F)C(F)(F)F,4.42%
9,COc1ccc(CC(C)Nc2ccccc2F)cc1 (centres unmarked),23%
10,O=C(COc1ccc(S(=O)(=O)N2CCCC2)cc1Cl)NC1CCCC1,-9.44%
11,Nc1nc(SCc2ccc(F)cc2)n[nH]1,16.6%
12,CCOCCCNC(=O)c1ccc(N2CC3CC(C2)c2cccc(=O)n2C3)c(NC(=O)Nc2cccc(OC)c2)c1 (centres unmarked),8.4%
13,CCOC(=O)C1CCCN(Cc2cc(=O)oc3cc(C)ccc23)C1 (centres unmarked),6.79%
14,CCc1ccc(N2CC(C(=O)Nc3ccc(S(=O)(=O)NCC4CCCO4)cc3)CC2=O)cc1 (centres unmarked),13.2%
15,CCOC(=O)c1[nH]c(C)c(/C(O)=C2\C(=O)C(=O)N(CCCn3ccnc3)C2c2ccncc2)c1C (centres unmarked),12.5%
16,COc1ccc(C(=O)c2ccc(N3CCN(C(=O)c4ccc(F)cc4)CC3)c(F)c2)cc1Br,2.88%
17,CSCC(=O)NCC1(N(C)Cc2ccccc2)Cc2ccccc2C1,13.5%
18,Cc1csc(NC(=O)CSc2nnc(-c3ccoc3C)n2Cc2ccco2)n1,-78.4%
19,O=C(O)c1csc(-c2cccc(Cl)c2)n1,14.6%
20,Cc1cc(C)n(C(=O)CN2C(=O)COc3ccccc32)n1,19.8%
21,ONC(=Nc1ccccc1)c1ccccc1Cl,-1.43%
22,COC(=O)/C=C1\S/C(=N/N=C/c2ccc(Cl)cc2)NC1=O,15.6%
23,Cc1c(C(=O)NC2CCCCC2)sc2ncnc(N3CCN(c4ccccc4)CC3)c12,15.3%

row,Compound,"hERG current change (%, negative = inhibition) at 1uM"
1,CN(Cc1cccs1)C(=O)COc1cccc(-n2cnnn2)c1,0.548%
2,C#CCOCCOCCOCCNc1nc(N2CCN(C(=O)C([C@@H](C)CC)n3cc(C(N)COC(=O)C(F)(F)F)nn3)CC2)nc(N2CCN(C(=O)C([C@@H](C)CC)n3cc(C(N)CC(C)C)nn3)CC2)n1.Cl (some centres unmarked),18.2%
3,COc1ccccc1Nc1nc(N)nc(CSC(=S)N2CCCCC2C)n1 (centres unmarked),9.94%
4,O=C(CCC1CCN(Cc2ccccc2Cl)CC1)NC1CC1,-4.25%
5,O=C(Nc1cc(Cl)ccc1F)C1=COCCO1,14%
6,Cc1ccccc1CN1CCN(C/C=C/c2ccccc2)CC1,-0.571%
7,Cc1cnc(C(=O)OCC(=O)c2ccc(C3CCCCC3)cc2)cn1,8.59%
8,Cc1cc(Nc2cc(F)ccc2C)n2nc(C)nc2n1,8.63%
9,Fc1cccc(-c2cc3nc(-c4ccccc4)cc(N4CCC5(CC4)OCCO5)n3n2)c1,5.92%
10,CSc1ccc(CNC2CN3CCC2CC3)cc1.Cl (centres unmarked),9.25%
11,CSC1=NCCN1C(=O)c1c(-c2ccccc2Cl)noc1C,8.82%
12,CCOC(=O)C(NC(C)=O)C(=O)Nc1ccc(OC)cc1 (centres unmarked),10.9%
13,COC(=O)Nc1ccc(S(=O)(=O)Nc2ccc(C(=O)O)cc2)cc1,-0.235%
14,O=C(COC(=O)CCc1c[nH]c2ccccc12)NC(c1ccccc1)c1ccccc1,4.83%
15,CC(C)N1CCN(Cc2ccc(OCc3ccccc3)cc2)CC1CCO (centres unmarked),0.0763%
16,Cc1ccc(C)c(-c2cc(C(=O)Nc3cccnc3)c3ccccc3n2)c1,-24.6%
17,CCOC(=O)C(Sc1cc(C)nc(N)n1)C(C)=O (centres unmarked),8.11%
18,NC(=O)Nc1ccc(Oc2c(F)c(F)c(F)c(F)c2F)cc1,6.61%
19,CC(C)(C)CC(C)(C)N=C1NS(=O)(=O)c2cc([N+](=O)[O-])ccc21,9.84%
20,C=CCn1c(SCC(=O)NCC2CCCO2)nnc1-c1ccccc1 (centres unmarked),6.11%
21,CC1C(=NO)C(C)C(c2ccc(N(C)C)cc2)NC1c1ccc(N(C)C)cc1 (centres unmarked),10.7%
22,CC1=CC(C)(C)N2C(=O)C3(SCC(=O)N3c3ccc(O)cc3)c3cc(C)cc1c32 (centres unmarked),8.33%
23,CC(C)(C)NC(=O)C(c1cccnc1)N(C(=O)c1ccc(Cl)nc1)C1CCCC1 (centres unmarked),8.62%

row,Compound,"hERG current change (%, negative = inhibition) at 1uM"
1,CC(=O)c1ccc(NC(=S)N2CCCC(C(F)(F)F)C2)cc1 (centres unmarked),5.69%
2,C/C(=N\NC(=O)CCCOc1ccc(Cl)cc1C)c1ccc(C)o1,9.02%
3,COc1ccc(C2C(=O)N(C3CCCCC3)CC(=O)N2CCc2ccccc2)cc1OC (centres unmarked),4.94%
4,CC(NCC(O)COc1ccc2ccccc2c1)c1ccccc1.O=C(O)C(=O)O (centres unmarked),8.5%
5,CCn1cc(/C=C(\NC(=O)c2ccc(OC)c(OC)c2)C(=O)NCCN2CCOCC2)c2ccccc21,5.82%
6,CC(=O)N1CCN(S(=O)(=O)c2ccc(S(=O)(=O)N3CCCC(C)C3)cc2)CC1 (centres unmarked),13.2%
7,O=C(CSc1nc(N2CCCCC2)nc(N2CCCCC2)n1)Nc1nccs1,6.21%
8,O=C(C1=C[C@@H](c2coc3ccccc3c2=O)C[C@@H](OCc2ccc(CO)cc2)O1)N1CCN(Cc2ccc3c(c2)OCO3)CC1,-17.3%
9,COc1ccc(CCNc2ncnc3c2nnn3Cc2ccccc2)cc1OC,3.77%
10,COc1cccc(NC(=O)C(C)C)c1,10.8%
11,CSc1nnc(-c2cnccn2)n1C,14%
12,CCCc1cc(=O)[nH]c2nnc(SCC(=O)NCc3ccc4c(c3)OCO4)n12,2.04%
13,COC(=O)C1=C(C)N(CCCC(=O)O)C(=O)NC1c1ccccc1Cl (centres unmarked),3.9%
14,CC(=O)OCC(=O)NCc1ccc2c(c1)OCO2,-20.7%
15,CCN(CC)S(=O)(=O)c1ccc(N=NC2=C(O)CCCC2=O)cc1,6.42%
16,CNC(=O)COc1ccc(Nc2nnc(C)c3ccccc23)cc1.Cl,15.3%
17,COc1ccc(C(=O)Nc2ccc(C(=O)N3CCCCC3)cc2)cc1OC,15.3%
18,COc1ccc(CNC(=O)COC(=O)c2ccccc2C(=O)c2ccccc2)cc1,5.51%
19,O=C(NCCC(c1ccccc1)c1ccco1)c1cccs1 (centres unmarked),11.3%
20,O=C(NCc1nnc2c(C(F)(F)F)cc(Cl)cn12)C1CCCC1,8%
21,CCN(CC)CCN1C(=O)C(O)=C(C(=O)c2cccs2)C1c1ccccn1 (centres unmarked),8.68%
22,Cc1ccc(NC(=O)COC(=O)c2cc(Cl)ccc2[N+](=O)[O-])cc1,5.25%
23,O=C(CNC(=S)N(Cc1ccccc1F)C1CCCCC1)NCCN1CCOCC1,7.76%

row,Compound,"hERG current change (%, negative = inhibition) at 1uM"
1,Cc1ccnc(NC(=O)CCC(=O)c2cccs2)c1,14.6%
2,O=C(O)c1ccc(N/N=C/C2=Cc3ccccc3OC2)cc1,11.6%
3,CC(=O)/C=C/n1c(=S)oc2ccccc21,11.5%
4,Cc1ccc(S(=O)(=O)N(C)C)cc1NC(=O)COC(=O)CCC1CCCC1,6.73%
5,Cc1ccc(-c2cc(C(=O)NN)n[nH]2)o1,12.4%
6,CC(C)(C)c1ccc(CCC2OCC(C[N+]3(C)CCOCC3)O2)cc1.[I-] (centres unmarked),12.7%
7,CCCOc1ccc(/C=N/NC(=O)CN(c2ccc(OCC)cc2)S(C)(=O)=O)cc1,-6.44%
8,COc1ccc(S(=O)(=O)N2CCCCCC2)cc1C(=O)NCc1ccc(C)cc1,3.78%
9,Cc1c(NC(=O)C(C)OC(=O)c2ccc(NC(=O)CC#N)cc2)c(=O)n(-c2ccccc2)n1C (centres unmarked),6.67%
10,COC(=O)c1cc(Cl)c(NC(=O)/C=C/c2ccc(Cl)cc2)cc1OC,1.01%
11,CC(Sc1nncn1C)C(=O)Nc1ccc(N2CCCCC2)cc1 (centres unmarked),12%
12,CN1CCCN(Cc2nc(-c3cccc(C(F)(F)F)c3)no2)CC1,-15.4%
13,COc1ccccc1NC(=O)Nc1nn(C)c2cccc(OC)c12,9.38%
14,O=C(Nc1ccc(F)cc1)Nc1cccnc1,1.11%
15,COc1ccc2c(c1)sc(=N)n2CC(=O)Nc1cc(C)cc(C)c1,6.22%
16,CC(=O)Nc1ccc(NC(=O)C(C)OC(=O)C(C)SCC(=O)Nc2ccc(C)cc2)cc1 (centres unmarked),15.6%
17,Cc1ccc(-c2cnc3n2CCCCC3)cc1,6.39%
18,O=C(CCNC(=O)c1ccccc1Cl)Nc1nc(-c2ccccc2Cl)cs1,-11%
19,Cc1cccc(N2CCN(C(=O)NC3CCCCC3)CC2)c1C,8.24%
20,CC(O)(CS(=O)(=O)c1ccc(Br)cc1)c1ccccc1 (centres unmarked),20.5%
